# Measured values published in the supplement of paper PMC4996465.
# Viability of KB3-1 and Nalm-6 cells after 48 h of drug alone (CellTiter-Glo), 11 doses over about 4.5 log units. % of DMSO wells, lower = more cell loss; AC50 from the fitted curve, lower = more potent. No active / inactive call. Nalm-6 was screened in two runs. AC50 is listed only for well-fitted inhibitory curves. KB3-1 is a HeLa-derived carcinoma line, Nalm-6 a B-cell precursor leukaemia line.
# Key:
# KB3-1 [1] = test: viability (% of DMSO control); higher = more viable cells
# Method: (§1)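 Eleven-dose screen of the NCATS MIPE 3 library on cells without co-treatment; CellTiter-Glo after 48 h, as % of DMSO wells.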
# Nalm-6 [2] = test: as above
# Method: as §1
# KB3-1 [3] = test: log AC50 of viability decrease (48 h) (log10 M); higher = less potent
# Method: (§2)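 Eleven-dose screen of the NCATS MIPE 3 library on cells without co-treatment; CellTiter-Glo after 48 h. AC50 from the curve fit; only inhibitory curves of the better fit classes are listed.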
# Nalm-6 [4] = test: as above
# Method: as §2
SMILES,viability (KB3-1 [1]; 0.00078 µM) [%],viability (KB3-1 [1]; 0.00234 µM) [%],viability (KB3-1 [1]; 0.00702 µM) [%],viability (KB3-1 [1]; 0.0211 µM) [%],viability (KB3-1 [1]; 0.0632 µM) [%],viability (KB3-1 [1]; 0.19 µM) [%],viability (KB3-1 [1]; 0.569 µM) [%],viability (KB3-1 [1]; 1.71 µM) [%],viability (KB3-1 [1]; 5.12 µM) [%],viability (KB3-1 [1]; 15.4 µM) [%],viability (KB3-1 [1]; 46.1 µM) [%],"viability (Nalm-6 [2]; run: 1, 0.00078 µM) [%]","viability (Nalm-6 [2]; run: 1, 0.00234 µM) [%]","viability (Nalm-6 [2]; run: 1, 0.00702 µM) [%]","viability (Nalm-6 [2]; run: 1, 0.0211 µM) [%]","viability (Nalm-6 [2]; run: 1, 0.0632 µM) [%]","viability (Nalm-6 [2]; run: 1, 0.19 µM) [%]","viability (Nalm-6 [2]; run: 1, 0.569 µM) [%]","viability (Nalm-6 [2]; run: 1, 1.71 µM) [%]","viability (Nalm-6 [2]; run: 1, 5.12 µM) [%]","viability (Nalm-6 [2]; run: 1, 15.4 µM) [%]","viability (Nalm-6 [2]; run: 1, 46.1 µM) [%]","viability (Nalm-6 [2]; run: 2, 0.00078 µM) [%]","viability (Nalm-6 [2]; run: 2, 0.00234 µM) [%]","viability (Nalm-6 [2]; run: 2, 0.00702 µM) [%]","viability (Nalm-6 [2]; run: 2, 0.0211 µM) [%]","viability (Nalm-6 [2]; run: 2, 0.0632 µM) [%]","viability (Nalm-6 [2]; run: 2, 0.19 µM) [%]","viability (Nalm-6 [2]; run: 2, 0.569 µM) [%]","viability (Nalm-6 [2]; run: 2, 1.71 µM) [%]","viability (Nalm-6 [2]; run: 2, 5.12 µM) [%]","viability (Nalm-6 [2]; run: 2, 15.4 µM) [%]","viability (Nalm-6 [2]; run: 2, 46.1 µM) [%]",log AC50 of viability decrease (KB3-1 [3]),log AC50 of viability decrease (Nalm-6 [4]; run: 1),log AC50 of viability decrease (Nalm-6 [4]; run: 2)
CN1CCN(CC1)C2=CC3=C([NH]C(=N3)C/4=C(\N)C5=C(F)C=CC=C5NC4=O)C=C2 [Dovitinib],101,105,107,105,102,103,81.9,70.1,73.5,68.6,11,110,118,119,116,101,110,79.5,43.6,7.04,4.74,-1.48,111,109,103,105,104,109,84.5,56.4,13.2,5.56,-0.685,-4.73,-5.93,-5.78
COc1ccc(-c2ccc3c(N4CCOC[C@@H]4C)nc(N4CCOC[C@@H]4C)nc3n2)cc1CO [AZD-8055],75.4,71.8,62.5,54.4,44.3,41.7,42.2,43.4,41.5,45.1,43.5,82.9,75.2,77.2,62.2,60.2,58.7,57.3,56,52.9,44.8,25.2,92.1,90.3,75.5,64.1,70.9,59.7,51.1,51.9,47.6,40.2,19.3,-7.98,-5.13,-6.33
CNC(=O)c1ccccc1Sc1ccc2c(/C=C/c3ccccn3)n[nH]c2c1 [Axitinib],101,99.4,101,102,108,98.7,98.3,70.4,71.2,68.9,56.8,105,98.1,104,108,103,102,65.9,55.8,43.6,39.4,15.4,107,107,104,108,106,95,72.2,74.6,54.3,52.6,8.49,-5.98,-5.93,-5.18
NC/1=N/C(=O)N(/C=N1)[C@@H]2O[C@H](CO)[C@@H](O)[C@H]2O [5-Azacitidine],102,111,103,104,101,99.4,95.6,83.8,67.9,49.3,10.2,102,95.9,107,115,103,110,97.4,70.5,35.2,17.6,9.33,110,100,112,111,102,105,88.1,86,43.1,13.5,5.28,-4.83,-5.58,-5.38
Nc1ccc(C(=O)c2cc3c(ccc4ccccc43)[nH]2)cc1 [IPFK2],94.5,101,102,95.3,99.3,96.8,68,53.1,32.7,34.3,14.3,79.7,91.4,97.6,106,96.6,104,83.5,48.6,20,17,6.98,95.3,99.9,101,107,109,101,66.2,24,10.7,11.1,4.86,-5.93,-5.83,-6.13
Cc1c(C(=O)Nc2cccc(C(F)(F)F)c2)cc(-c2ccccc2)n1CCCN1CCOCC1,102,102,109,91.5,96.2,99.7,94,90.2,90.5,87.8,45.4,102,104,114,96.1,76.3,72.6,60.4,57,56.4,32.9,0.304,102,104,104,107,100,99.8,99.1,106,111,108,2.41,-4.63,-5.33,–
COc1cccc2cc(-c3nc(C4CCC(C(=O)O)CC4)n4ncnc(N)c34)[nH]c12 (stereo not drawn) [OSI-027],105,102,99.9,94.4,90.1,73.4,60.9,49.2,44.8,42.5,40.8,108,103,101,102,91.5,83.7,70.3,56.1,53.1,41.6,14.7,109,101,106,106,102,96,77,67.7,67.9,50.1,13.1,-6.63,-5.28,-5.18
CN(C)c1ccc(Nc2nc(N)n(C(=O)c3c(F)cccc3F)n2)cc1,99.7,96.4,101,98.2,101,99.9,91.4,84.4,83.2,87.7,59.6,105,118,122,115,113,112,88.9,69.6,79.7,75.3,20.6,113,109,110,111,105,106,96.4,83.9,88.4,78.9,1.84,-4.73,-4.83,-4.63
COc1cc(OC2CCN(C)CC2)ccc1Nc1ncc2c(n1)n(C1CCCC1)c(=O)n2C [AZ-3146],96.8,102,103,110,109,100,101,90.6,72.4,67,29,68.9,67.9,76.3,80.7,93.5,93,100,73.5,64.8,47.1,1.67,104,110,118,108,110,111,101,75,68,39.2,7.73,-4.78,-4.78,-4.98
CC(C)C[C@@H](C(=O)N[C@H](C(=O)OC1CCCC1)c1ccccc1)[C@H](O)C(=O)NO [Tosedostat],95.4,92.2,101,102,93.6,87.5,86.8,69,71,56.1,4.82,91.6,88.2,90.5,95.1,94.9,99.9,101,99.6,95.3,79.7,4,78.7,93.7,91.6,97.7,98.3,98.5,102,93.9,92.8,81.6,3.63,-4.78,-4.63,-4.63
C[N]1C=C(C=N1)C2=C3\C=N/NC(=O)C4=C3C(=CC(=C4)NC(=O)[C@H](N)C5CCCCC5)[NH]2,100,101,100,99.9,92.4,90.8,76.9,51.6,40.5,40.9,13.9,113,112,106,124,96.4,84.5,39.2,16.9,15.3,12.7,2.98,107,108,111,105,92.9,95.5,55.9,17.8,10,8.97,0.748,-5.73,-6.48,-6.23
CCCS(=O)(=O)Nc1ccc(F)c(C(=O)c2c[nH]c3ncc(Cl)cc23)c1F [PLX-4720],102,107,108,105,108,102,112,102,101,87,66.1,123,126,124,121,124,118,117,114,105,90.8,64.5,112,106,111,116,110,111,103,111,110,97.5,59.2,-4.78,-4.78,-4.68
COc1cc([C@@H]2c3cc4c(cc3[C@H](O)[C@H]3COC(=O)[C@H]23)OCO4)cc(OC)c1OC [Picropodophyllin],103,105,74.5,26.8,25.2,25.8,22,22,19.9,17.4,17.5,106,100,10.5,14.4,13.5,13.2,14.4,10.6,12.4,13.9,16.5,112,101,8.46,12.5,8.82,7.91,7.95,5.91,6.69,7.54,7.91,-8.08,-8.43,-8.43
CCN(CC)CCOC1=CC=C(NC2=NC=C3\C=C(/C(=O)N(C)C3=N2)C4=C(Cl)C=CC=C4Cl)C=C1,106,104,104,93.5,88,90.7,18.1,7.37,7.48,6.75,0.405,112,117,109,95.8,95.8,75,73.6,30.9,13.6,4.75,0.234,108,116,108,107,91.9,83.5,77.6,40.7,13.1,4.63,0.268,-6.48,-6.08,-5.93
